The whole screen tested about 46,000 compounds, of which about 60 (0.1%) were called active. Roughly 3% stayed inconclusive and do not appear here. The call rests on the fitted dose curve; in most records, active means well fitted inhibition curve with a large enough effect; inconclusive means small, poorly fitted or top-dose-only effect; inactive means no such curve, though single readings can be large or run the other way. The list shows a part of the results.

The nature of the test: Primary qHTS assay for Inhibitors of ovarian cancer metastasis using an organotypic tumor microenvironment (TME) model. Further: nearly all actives have a fitted effect of over 65% in size.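 On activity change, negative = inhibition: plate controls were DMSO wells for no effect and tomatine positive control wells for full effect.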 The following applies: SKOV3ip1-GFP adhesion/invasion on 3D omental model, fluorescence; series mostly up to 45.8 µM; activity change, negative = inhibition: at the top concentration. Summed up: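 qHTS, 4-pt dose (0.36-46 umol/L); SKOV3ip1-GFP, 1,200 cells/well, no FBS; primary omental fibroblast/mesothelial co-culture 48 h pre-grown; 2 h RT + 16 h 37 C; PBS wash, 4% PFA; GFP count 488/509 nm.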
In general terms: qHTS replaces the single test concentration by a dilution series.
As for `COCCNc1ncnc2c1cnn2-c1cc(Cl)ccc1C`, the “activity change, negative = inhibition” value is inactive: 1.6%.
Still for that read-out and setting: with `Cn1nc(C(=O)NCc2cccc(Cl)c2)c2c1-c1ccccc1SC2` the figure was inactive: -1.67%.
On the same count and under the same terms, with `CN1CCN(C(c2ccc(Cl)cc2Cl)c2sc3nc(-c4ccco4)nn3c2O)CC1` (configuration not stated) the figure was inactive: 2.5%.
Same read-out and setting: with `O=C(NCc1ccc(Cl)cc1)c1ccc(NC(=O)N2CC3CCCN3c3ccccc32)cc1` (configuration not stated) the figure was inactive: 8.01%.
On to `Cc1ccc(Cl)cc1N1CCN(C(=O)CN2C(=O)COc3ccc(S(=O)(=O)N4CCC(C)CC4)cc32)CC1`, for which the “activity change, negative = inhibition” value was inactive: 2.18%.
Regarding `COc1ccc(N2CCN(c3ncnc4c3cnn4-c3ccc(C)c(Cl)c3)CC2)cc1`, the compound was classed as inactive.
Regarding `CC(C)(C)C(=O)NC1(C(F)(F)F)NC(=O)N(c2ccc(F)cc2)C1=O` (configuration not stated), the “activity change, negative = inhibition” value is inactive: 2.91%.
On the same count and under the same terms, the same measure for `COc1ccc(N2CCN(CC(O)COc3ccc(C)cc3C)CC2)cc1` (configuration not stated): inactive: 10.9%.
Regarding `Cc1ccc(CNC(=O)CCS(=O)(=O)c2cc3c(cc2Cl)NC(=O)CO3)cc1`, the result was inactive.
On to `CNc1nc(Nc2ccc(C(=O)N3CCOCC3)cc2OC)ncc1Cl`, for which the “activity change, negative = inhibition” value was inactive: -6.91%.
Still for that read-out and setting: with `CCOc1ccccc1CNS(=O)(=O)c1ccc2c(c1)C(C)(C)C(=O)N2C` the figure was inactive: -14.8%; with `CCOC(=O)CN(Cc1ccccc1)C(C(=O)NC1CCCCC1)c1ccc(C)cc1` (configuration not stated), inactive: -7.46%.
Regarding `CCOC(=O)C1CCN(C(=O)Cn2c(-c3cccs3)cc3cc(Cl)ccc32)CC1`, the “activity change, negative = inhibition” value was inactive: 5.51%.
Turning to `CCC(=O)N1CCc2cc(S(=O)(=O)NC(C(=O)NCc3ccccc3Cl)C(C)C)ccc21` (configuration not stated), the “activity change, negative = inhibition” value was inactive: -7.79%.
The same measure, in the same setting: the same measure for `Cc1nn(C(=O)c2ccccc2)c(C)c1S(=O)(=O)N1CCOCC1`: inactive: 24.7%; for `COc1ccc(CNC(=O)c2ccc(-c3nc(CSc4ccc(C)cc4)c(C)o3)cc2)cc1OC`: inactive: 1.88%.
The same measure, in the same setting: the same measure for `O=C(NCc1ccc(F)cc1)c1cc(Sc2ccc(F)cc2F)nc2ccccc12`: inactive: -28.8%; for `Cc1c(C(=O)NCc2ccccc2Cl)sc2nc(-c3ccc(F)cc3)cn12`: inactive: 3.93%.
In the case of `CCOC(=O)c1ccc(NC(=O)CSc2nnc(CNC(=O)c3ccc(OC)cc3)n2CC)cc1`, the compound was called inactive.
As to `COc1ccc(NC(=O)CC2C(=O)N(c3ccc(C)cc3)C(=O)N2Cc2ccc3c(c2)OCO3)cc1` (configuration not stated), the “activity change, negative = inhibition” value was inactive: -27.7%.
As to `Cc1ccccc1Cn1nnc2c(=O)[nH]c(C3CCCN(C(=O)c4ccc(F)cc4)C3)nc21` (configuration not stated), the “activity change, negative = inhibition” value was inactive: -15.3%.
Same read-out and setting: with `O=C(Nc1nnc(S(=O)(=O)N2CCCC2)s1)c1ccccc1Br` the figure was inactive: 4.15%.
Same read-out and setting: with `Cc1ccccc1OCCCn1c(-c2ccc(Cl)cc2)nc2ccccc2c1=O` the figure was inactive: -6.57%.
Turning to `Cn1c(=O)oc2cc(S(=O)(=O)N3CCC(C(=O)NCc4ccc(F)cc4)CC3)ccc21`, the call was inactive.
With `COc1ccc(Nc2nc3cc(Cl)c(Cl)cc3n3cnnc23)cc1Cl`, the “activity change, negative = inhibition” value is inactive: 7.57%.
On to `Cc1ccc(C)c(CN2C(=O)c3ccccc3S(=O)c3ccc(C(=O)N4CCN(c5ccccc5F)CC4)cc32)c1` (configuration not stated), for which the call was inactive.
For the compound `Cc1ccc2c(c1)N(C(=O)CCC(=O)NCc1cccs1)CCO2`, the “activity change, negative = inhibition” value was inactive: 5.19%.
Take `COc1cc(N2C(=O)CSC23C(=O)N(Cc2ccc(C)cc2)c2ccccc23)cc(OC)c1OC` (configuration not stated): the outcome was inactive.
For `CCC(C)n1c(SCc2c(F)cccc2Cl)nc2ccsc2c1=O` (configuration not stated), the “activity change, negative = inhibition” value is inactive: -2.07%.
Take `COc1ccc(N2CCN(S(=O)(=O)c3ccc4c(c3)CCCN4C(C)=O)CC2)cc1`: the “activity change, negative = inhibition” value was inactive: 15.2%.
Still for that read-out and setting: with `COc1cc2c(cc1OC)C(COc1ccc(C(C)C)cc1)N(C(=O)c1ccc(S(=O)(=O)N3CCCC3)cc1)CC2` (configuration not stated) the figure was inactive: 113%; with `CC1CCN(CCCNC(=O)c2cn(C)c3ccc(S(=O)(=O)N(C)C4CCCCC4)cc3c2=O)CC1`, inactive: -8.67%; with `COc1cc2c(cc1OC)C(COc1ccc(F)cc1)N(C(=O)c1ccc(S(=O)(=O)N3CCCC3)cc1)CC2` (configuration not stated), inactive: -19.7%.
Same read-out and setting: the same measure for `COc1cc(C2CC(=O)N(Cc3ccc(F)cc3)c3ccccc3S2)cc(OC)c1OC` (configuration not stated): inactive: -4.37%; for `CCc1cc(C(=O)NC(C)c2ccccc2)no1` (configuration not stated): inactive: 1.14%; for `COc1ccc(Br)c(C(=O)Nc2cc3c(cc2N2CCCCC2)n(C)c(=O)c(=O)n3C)c1`: inactive: -2.85%.
For the compound `COC(=O)c1cc(NC(=O)[C@H](CCS(C)(=O)=O)N2Cc3ccccc3C2=O)cc(C(=O)OC)c1`, the “activity change, negative = inhibition” value is inactive: -7.69%.
On the same count and under the same terms, the same measure for `CCc1ccc(-c2nc3cc(NC(=O)c4cc5ccccc5cc4OC)ccc3o2)cc1`: inactive: -24.9%; for `Cc1ccc(-n2nc(CO)c(C(=O)NCc3cccs3)n2)cc1C`: inactive: 4.57%.
Still for that read-out and setting: the same measure for `CCOc1ccc(-c2cc(-c3nc(-c4cc(OC)c(OC)c(OC)c4)no3)[nH]n2)cc1Cl`: inactive: -4.75%; for `Cc1cccc(NC(=O)c2c(C)cc(C)nc2SCC(=O)Nc2c(C)cc(C)cc2C)c1`: inactive: -6.4%.
On the same count and under the same terms, the same measure for `CC(=O)Nc1ccc(NC(=O)c2ccc(COc3ccc(Cl)cc3Cl)o2)cc1`: inactive: 1.19%; for `O=C(CCCn1c(=O)c2ccccc2n(Cc2ccc(F)cc2Cl)c1=O)NCCc1ccc(Cl)cc1`: inactive: 33.2%; for `COC(=O)c1ccccc1NC(=O)c1ccc2nc(Cc3ccccc3)oc2c1`: inactive: -3.05%.
As to `CC(=O)c1cccc(NC(=O)CSc2nc(=O)n(Cc3cccnc3)c3c2CCC3)c1`, the “activity change, negative = inhibition” value is inactive: -1.71%.
Same read-out and setting: with `Oc1c(C(c2ccccc2F)N2CCCCC2)sc2nc(-c3ccco3)nn12` (configuration not stated) the figure was inactive: -2.73%; with `Nc1cc(=O)nc(SCC(=O)Nc2ccc(F)cc2)n1-c1ccccc1Cl`, inactive: -8.68%.
